The RNAGym collection of RNA variant scans (doi:10.7554/elife.90254)
The source gives no read counts; variants with many changes may rest on few reads.

B1: LINE1-mini (parent)
chain: GGCAGAGCUCAACACAGCGUGGCAAAGUGGCUGUGGCUAGACUGCC

Variants of: B1
Assay: self-cleavage, relative activity (ratio to wild type); higher = more cleavage; in vitro, sequencing; the parent is a self-cleaving ribozyme

Row | Variant | self-cleavage
1 | A6G G21U U32G | 0.05
2 | A6U A11U G22C | 0.17
3 | A6G G30U G33A | 0.03
4 | A6G G17U A25G G33U U43A | 0.05
5 | A6G U9G C10G G29A | 0.01
6 | A6G G21U C23A C46G | 0.27
7 | A6U C18U G19C | 0.25
8 | A6G G7C C23G U32A | 0.08
9 | A6U A12G U28C C31G C46A | 0.16
10 | A6G G17A G21A G30U C37G | 0.04
11 | A6U C15G C45G | 0.03
12 | A6U C10A G27U U32A C37U U43C G44U C45G | 0.01
13 | A6U C10G G17U | 0.04
14 | A6U A24U C46A | 0.19
15 | A6U A12G C31G G35A | 0.03
16 | A6G G19U G29U U43G | 0.03
17 | A6U C23A A24C A41C | 0.06
18 | A6G G7C C18G A26C | 0.07
19 | A6U C13A C18U | 0.14
20 | A6G U9G C23A G30U C37U A39U G40C U43A | 0
21 | A6G C18U G19U U32G C45A | 0
22 | A6G C18G A24G | 0.13
23 | A6G U9A A39G | 0.27
24 | A6G C15G G40A U43G | 0.08

Row | Variant | self-cleavage
25 | A6G G19A G35U | 0
26 | A6U A24C G29C | 0.09
27 | A6U C8A C10G U34A C46U | 0.04
28 | A6U A12G G17A C31U C42A | 0.02
29 | A6G G21U G29C | 0.07
30 | A6U C23A G27A | 0.58
31 | A6G G19U A24G U32C G36C | 0.01
32 | A6G C37G C42G | 0.36
33 | A6G C18G C31U G40C | 0
34 | A6G U20A G33A | 0.03
35 | A6U C10A U28G | 0.04
36 | A6U C8U G21A G36U | 0.28
37 | A6G U38C G40U | 0.09
38 | A6U C13A U43G | 0.33
39 | A6U C8G A26G G33A C42U | 0.3
40 | A6U C15G G22U | 0.03
41 | A6G G7C G36U | 0.03
42 | A6G G7C C13G | 0.12
43 | A6U C8A G40A | 0.36
44 | A6U C15G A26U | 0.05
45 | A6U C10G A25G | 0
46 | A6U A16G G19A G29A | 0.89
47 | A6G G22C U38C | 0.04
48 | A6G C18U G33A A39U | 0.01

Row | Variant | self-cleavage
49 | A6U C15A U38G C45G | 0.01
50 | A6U A11C G22U | 0.07
51 | A6G G7U A12G C15A G44C | 0.01
52 | A6U C8G C18G U20C C37G | 0.09
53 | A6U A11G A16C C18U G22A G30A C31G G35U | 0.01
54 | A6U C18A G19A U20G A41U | 0.19
55 | A6G G7A C10U C13G C42A | 0.01
56 | A6U A12G A16G G22A G27C | 0.02
57 | A6U A12G G22C C31U | 0.01
58 | A6U A12C G19A U28C C42U | 0
59 | A6G U9C A41G | 0.01
60 | A6G U9A A24G G29C G33U | 0.01
61 | A6G G27U G40A | 0.09
62 | A6U C8G U9C A26C G29U | 0.03
63 | A6G G21U C23A | 0.06
64 | A6G C15A U34G | 0.03
65 | A6G G27A G33A | 0.04
66 | A6G U9G G30U C31G G40U U43C C46A | 0.09
67 | A6U A11G A14C | 0
68 | A6G C37U C42A | 0.09
69 | A6U A24G U34G C42A | 0.08
70 | A6G U9C G22A C23U A26C C42U | 0.04
71 | A6U A25U A39G | 0.21
72 | A6G G30C C31A C37U C46U | 0.01

Row | Variant | self-cleavage
73 | A6U C8U C13G C37U | 0.73
74 | A6U C10G G33U | 0.01
75 | A6G G29C G30U C46G | 0.03
76 | A6G G22C G33A | 0.06
77 | A6U C8U C13G C37G A39G C46G | 0.09
78 | A6G G21U A26U G29U U43A | 0.01
79 | A6G U9C C18A G29C U34A | 0.01
80 | A6U C13A G44C | 0.02
81 | A6U A16C G17U | 0.14
82 | A6U A12U A16G G17A | 0.02
83 | A6U A12C G21A U32G C37A A39C | 0.13
84 | A6U A16G G17A | 0.1
85 | A6G G7A A12G | 0.03
86 | A6U C8G U9A U28A G40A G44U | 0.16
87 | A6U A14G C15A A16U G30U A39G | 0.06
88 | A6U C15G U34A G40A | 0.03
89 | A6G G7C C42U | 0.13
90 | A6U A12C A16C C18A A24C U43G | 0.06
91 | A6U C13A G17C | 0.43
92 | A6G C15A C18A C31A | 0.02
93 | A6U C13A A39G | 0.28
94 | A6U C13U U32C | 0.39
95 | A6G C31G C46A | 0
96 | A6G U9G A11G A12C G17A G30A G44U | 0.03

Row | Variant | self-cleavage
97 | A6G C15G C18G C23G | 0.27
98 | A6G G36C G44C | 0.01
99 | A6U C10A G40U | 0.01
100 | A6U C8A U9G G35U | 0
101 | A6G G19U G21C | 0.01
102 | A6U A16G G33U | 0.01
103 | A6U C15A C23U U28A A39U | 0.55
104 | A6U A11U A12G G21A G36U | 0.03
105 | A6U C13A A16G G22U U28G | 0.01
106 | A6G U9A C23A C37A | 0.02
107 | A6U A12U U20A G36A | 0.04
108 | A6G G21C G36U | 0.09
109 | A6U C8U A12G A26G | 0.06
110 | A6G U28A G40U | 0.06
111 | A6U A12U C13A A16C C23A C31G | 0.01
112 | A6U A11C C37U | 0.05
113 | A6G G21A U34G | 0.03
114 | A6G G21U G40U | 0.16
115 | A6U A12C C18A | 0
116 | A6U C15U A16G | 0.73
117 | A6G U9G C10U C13A C18U G29A G36C | 0.03
118 | A6U C10G U34A A41C C46U | 0.02
119 | A6G G21A G29A C45U | 0.11
120 | A6G C13U G22C C31A | 0.08

Row | Variant | self-cleavage
121 | A6U A14C A16C | 0.26
122 | A6U C8U G30C | 0.48
123 | A6G C23A A41G C45A | 0.07
124 | A6U A26U G35U | 0.1
125 | A6G G17A U28C | 0.05
126 | A6U A12U C37G U43A | 0.04
127 | A6U A11C C13A A16U C42G U43A | 0.02
128 | A6U C10A A25G | 0.05
129 | A6G G40A A41C C42U G44A | 0.08
130 | A6G U9G U20A C37U A41C | 0.02
131 | A6G G7A G17U | 0.14
132 | A6G G27C G30C | 0.03
133 | A6U C15U G17C C37A | 0.11
134 | A6G G7A C45G C46U | 0.31
135 | A6G U28A G44U C46U | 0.07
136 | A6G C31G U38C C42A C46A | 0.04
137 | A6G G22A C31A G44C | 0.04
138 | A6U A16G A39C C46U | 0.18
139 | A6G G27U G35A | 0.16
140 | A6G G17C G22U G36U A39U | 0.03
141 | A6U A26U G35A G36C | 0.24
142 | A6G C15U U28A U34A G35C C45A | 0.01
143 | A6U C10A C18A | 0.03
144 | A6U C13A A14C A24U A26U G35A C37U | 0.09

Row | Variant | self-cleavage
145 | A6G G7C G21C G35U A41U | 0.14
146 | A6U C10U C46A | 0.04
147 | A6U C15A C46U | 0.15
148 | A6G G27A U34C | 0.08
149 | A6U A14U C15A G19C | 0.02
150 | A6G G7A C13U A26U A41U | 0.07
151 | A6G G21U C31U G36U | 0.02
152 | A6G U34A C37A C45A | 0.01
153 | A6U C8U C31G | 0.69
154 | A6G C15A A16U C18U U20C U34C | 0.05
155 | A6G U20C A39C | 0
156 | A6G G40U C45U | 0.1
157 | A6G G19A A25C A26U G29A C45U | 0.36
158 | A6G G30C G44A | 0.22
159 | A6G C18A C31U C46A | 0.02
160 | A6G G33A G35A | 0.06
161 | A6G C13U U32G U38C | 0.25
162 | A6U A14C U28A | 0.15
163 | A6G U9G G22A | 0.06
164 | A6U A11C U34C G36U A39C | 0
165 | A6U C15U A16U A41G | 0.08
166 | A6U A24C G27A | 0.44
167 | A6G G30C U43G C45U | 0.34
